# Reference: PubChem BioAssay AID624296 (National Center for Advancing Translational Sciences (NCATS), 2012)
# Screen size: about 350,000 compounds; about 9,900 (2.8%) were called active. The shares of active, inactive and inconclusive entries below differ from those in the screen. Calls come from the whole dose curve; as a rule, active = well fitted activation curve with a large enough effect; inconclusive = small, poorly fitted or top-dose-only effect; inactive = no such curve, though single readings can be large or run the other way. Potencies of inconclusive entries are left out as doubtful fits.
# Test: A quantitative high throughput screen for small molecules that induce DNA re-replication in MCF 10a normal breast cells. For activity, positive = re-replication: % of control where 0% means no effect. Note: nearly all actives have a fitted effect of over 50% in size.
# Settings: MCF 10A DNA re-replication, Hoechst nuclear intensity, 48 h; activity, positive = re-replication: at 46.1 µM (top of the series)
# Potency is the fitted concentration of half-maximal effect; tags give direction and shape of the fitted curve.
SMILES,Potency,"activity, positive = re-replication"
Fc1ccc2c(c1)C1C=CCC1C(c1cc3c(cc1Br)OCO3)N2 (stereo not drawn),active: 23.1 µM,–
Cc1ccccc1NC(=O)c1sc2nc3c(c(-c4ccco4)c2c1N)CCCC3,"inconclusive [activator, full curve, poor fit]",–
O=C(CCn1c(=O)[nH]c2ccsc2c1=O)NCCc1ccc(Cl)cc1,"inconclusive [activator, full curve, poor fit]",–
O=c1/c(=C\c2cccn2-c2ccccc2)sc2nc3ccccc3n12,"inconclusive [activator, full curve]",–
O=C(CN1CCN(S(=O)(=O)c2ccccc2)CC1)N1CCCCC1,–,inactive: 4.89%
CCc1cc(Cn2nc(-c3ccccc3)cc2C(=O)NCc2cccc(C(F)(F)F)c2)on1,"inconclusive [activator, single point]",–
CCOC(=O)C1=CN(Cc2cccc(F)c2)S(=O)(=O)N(CC)C1c1ccc(C(F)(F)F)cc1 (stereo not drawn),"inconclusive [activator, partial curve, poor fit]",–
Cc1c(C(=O)NCCC2=CCCCC2)sc2ncnc(N3CCCCC3C)c12 (stereo not drawn),"inconclusive [activator, single point]",–
CCC(=O)N(CCC(c1ccccc1)c1ccco1)Cc1cccs1 (stereo not drawn),active: 11.2 µM,–
CC(=O)Nc1ccc(NC(=O)CSc2ncc(C(=O)Nc3ccc(Cl)cc3)c(=O)n2C)cc1,"inconclusive [activator, single point]",–
CC(C)(C)C(=O)CSc1ncnc2c1cnn2-c1ccccc1,"inconclusive [activator, single point]",–
CC(C)(C)c1ccccc1OCCOCCSc1ncccn1,"inconclusive [activator, partial curve]",–
Cc1cc(C=O)c(C)n1-c1sc2c(c1C(=O)O)CCCC2,"inconclusive [activator, single point]",–
CC(=O)Nc1ccc(NC(=O)C(C)OC(=O)c2ccc(S(=O)(=O)N3CCCCCC3)cc2)cc1 (stereo not drawn),active: 14.6 µM,–
O=C1Nc2cccnc2N(C(=O)CCl)c2ccccc21,active: 14.6 µM,–
CC(C)N1CCc2c(sc(NC(=O)c3ccc(C(=O)c4ccccc4)cc3)c2C(N)=O)C1,active: 16.4 µM,–
N#Cc1ccc(COC(=O)c2ccc(N3CCCC3)c([N+](=O)[O-])c2)cc1,"inconclusive [activator, single point]",–
O=C(NCC1CCCCC1)c1ccc(F)cc1Cl,"inconclusive [activator, single point]",–
COc1ccc(OC)c(NC(=O)CCN2CC(C)CC(C)C2)c1 (stereo not drawn),–,inactive: 3.96%
CN1CCN(C(=S)NC(=O)c2ccc(S(=O)(=O)N3CCOCC3)cc2)CC1,–,inactive: 3.09%
NNc1nc(Nc2ccccc2)nc(Nc2ccccc2)n1,"inconclusive [activator, single point]",–
COC(=O)c1c(C)oc2ccc(N(C(=O)c3ccncc3)S(=O)(=O)c3ccc(C)cc3C)cc12,active: 14.6 µM,–
O=C(Nc1ccc(Cl)cc1)Nc1nnc(CSCc2ccc(Cl)cc2)s1,–,inactive: 14.7%
CC(=O)Nc1ccc(S(=O)(=O)N(Cc2ccccc2)C(C)C)cc1,–,inactive: 26.2%
CCS(=O)(=O)Nc1cccc(C2=NN(S(=O)(=O)c3ccccc3)C(c3ccco3)C2)c1 (stereo not drawn),"inconclusive [activator, single point]",–

SMILES,Potency,"activity, positive = re-replication"
O=c1oc2cc(Cl)ccc2n1CSc1nc2ccccc2s1,"inconclusive [activator, partial curve, poor fit]",–
Cc1cc(C)c2nc(-c3ccncc3)cc(C(=O)N3CCN(Cc4ccccc4Cl)CC3)c2c1,"inconclusive [activator, single point]",–
Cc1cc(Cl)cc2sc(=S)[nH]c12,"inconclusive [activator, single point]",–
O=C(c1cc(-c2ccc(Cl)cc2Cl)on1)N1CCOCC1,–,inactive: -2.98%
NS(=O)(=O)c1ccc(NC(=S)NC(=O)/C=C/c2ccco2)cc1,–,inactive: -0.436%
CCC(C(=O)OC(C)C)c1ccc2ccccc2c1 (stereo not drawn),"inconclusive [activator, full curve, poor fit]",–
COc1cc(/C=C2\SC(N3CCCCC3)=NC2=O)cc(OC)c1OC,–,inactive: 15.8%
Cc1ccc(NNc2c(C)nc3ccccc3nc2=O)cc1,"inconclusive [activator, single point]",–
Clc1ccc(N/N=C/c2cccnc2)cc1,"inconclusive [activator, partial curve, poor fit]",–
COc1ccccc1C1CC(c2ccc(Cl)cc2)Nc2ncnn21 (stereo not drawn),–,inactive: 5.95%
CC1(C)CC(N2CCN(CCO)CC2)=CC(=S)N1,"inconclusive [activator, single point]",–
CCn1cc(/C=C/C(=O)Nc2ccn(Cc3c(F)c(F)cc(F)c3F)n2)cn1,"inconclusive [activator, single point]",–
COc1ccc(/C=N/N=C2/NC(=O)C(CC(=O)O)S2)cc1OCc1ccc(Cl)cc1 (stereo not drawn),–,inactive: 15.1%
O=C(N/N=C/c1ccc(OC(=O)c2ccccc2)c([N+](=O)[O-])c1)c1ccc(O)cc1,–,inactive: 7.83%
CCOC(=O)C(C)Sc1ccc2nnc(-c3ccc(F)cc3)n2n1 (stereo not drawn),–,inactive: 15.8%
Cc1ccc(-c2ccc(C(=O)O)c(C)n2)cc1,–,inactive: -46.5%
O=C(CCCOc1ccc(Cl)cc1Cl)Nc1ccccc1C(=O)O,–,inactive: 4.48%
C=CCN1C(=O)/C(=C2/Sc3ccc(OC)cc3N2C)SC1=Nc1cccc(O)c1,active: 5.8 µM,–
COc1ccccc1NC(=O)Cn1nc(-c2ccc3c(c2)OCCO3)ccc1=O,active: 0.92 µM,–
Nc1nc2c(-c3ccc(Br)cc3)nnn2c2ccccc12,active: 5.17 µM,–
CCOCCCNC(=O)/C(C#N)=C/c1cc(OC)c(O)c([N+](=O)[O-])c1,active: 4.61 µM,–
Cn1c(SCC(=O)Nc2cc(C(C)(C)C)nn2-c2ccccc2)nc2ccccc21,"inconclusive [activator, full curve]",–
Cn1c(=O)c2c(n(Cc3ccccc3)c1=O)NC(=O)C2CC(=O)O (stereo not drawn),"inconclusive [activator, single point]",–
CC(C)(CN1CCN(Cc2ccccc2)CC1)NS(=O)(=O)c1ccc(Cl)cc1,"inconclusive [activator, single point]",–
O=C(NC1CCCCCC1)c1ccccc1-c1ccccc1,"inconclusive [activator, partial curve]",–

SMILES,Potency,"activity, positive = re-replication"
S=c1nc[nH]c2c1sc1nc(-c3ccccc3)c3c(c12)CCCC3,"inconclusive [activator, partial curve, poor fit]",–
COc1ccc(NC(=O)CN2C(=O)NC3(CCCC3)C2=O)cc1Cl,"inconclusive [activator, partial curve, poor fit]",–
COCCCNC(=S)NNC(=S)NCCCOC,"inconclusive [activator, partial curve]",–
CC1(C)CC(Cc2nc(=S)[nH][nH]2)C(=O)O1 (stereo not drawn),–,inactive: 1.29%
Cc1cccc(N2CCN(C(=O)c3cc(S(=O)(=O)N4CCOCC4)cn3C)CC2)c1C,"inconclusive [activator, single point]",–
Cc1nc2ccccc2n1-c1nc(-c2ccco2)cc(C(F)(F)F)n1,"inconclusive [activator, partial curve, poor fit]",–
CCOC(=O)N1CCc2c(sc(NC(=O)c3ccc(S(=O)(=O)N4CCCC4)cc3)c2C#N)C1,"inconclusive [activator, partial curve, poor fit]",–
Cc1cc(Nc2cccc([N+](=O)[O-])c2)n2c(nc3ccccc32)c1C#N,active: 6.31 µM,–
CCOC(=O)C1=C(C)N=C2SC=C(C)N2C1c1ccc(OC)cc1 (stereo not drawn),"inconclusive [activator, single point]",–
O=C(Cn1cc(Cl)c([N+](=O)[O-])n1)NCCC1=CCCCC1,–,inactive: -4.07%
CCOC(=O)CNC(c1ccccc1)c1cc(Br)ccc1NC(=O)CCN1CCOCC1 (stereo not drawn),active: 10.3 µM,–
c1ccc2c(c1)c1c(c3ccccc32)CN2CCCC2C1 (stereo not drawn),"inconclusive [activator, single point]",–
COc1ccc(C2=CC(=O)N(Nc3ccccc3)C2=O)cc1,"inconclusive [activator, partial curve, poor fit]",–
COc1ccc2ccccc2c1-c1sc(Nc2ccccc2)n[n+]1-c1ccc(F)cc1,–,inactive: 4.66%
COC(=O)c1[nH]c2ccc(C)cc2c1NC(=O)CN1CCCc2ccccc21,"inconclusive [activator, single point]",–
CCOC(=O)C1CCN(C(=O)CN(c2ccc(Oc3ccccc3)cc2)S(C)(=O)=O)CC1,–,inactive: 27.6%
COc1ccc(OC)c(NC(=S)N2CCN(Cc3ccccc3)CC2)c1,–,inactive: -6.32%
CCn1c(SCC(=O)Nc2cc(OC)c(OC)c(OC)c2)nnc1-c1cccs1,–,inactive: 2.25%
COCCN(CC(=O)Nc1cccc(C)c1C)C(=O)C1(c2ccc(Cl)cc2)CCC1,–,inactive: 78.5%
COc1ccc(Nc2nc(NCc3ccco3)nc(N/N=C/c3ccc(O)cc3)n2)cc1,"inconclusive [activator, single point]",–
CCN(CC)S(=O)(=O)c1ccc(N2CCCCC2)c(NC(=O)/C=C/c2ccc(OC)c(OC)c2)c1,–,inactive: -1.89%
CCOC(=O)c1c(C)[nH]c(C(=O)N/N=C\c2ccccc2Cl)c1C,"inconclusive [activator, single point]",–
CCN(CC)C(=O)CSc1nc(N)c2c3c(sc2n1)CC(C)CC3 (stereo not drawn),"inconclusive [activator, single point]",–
